The record followed here is PubChem BioAssay AID485344 (National Center for Advancing Translational Sciences (NCATS), 2010).

Where “and” joins values, the source holds several entries; their conditions need not be identical. Equal entries are not always repeated. In all, about 340,000 compounds went through this assay and about 6,900 (2%) were called active. Rule as the data show it: active = inhibition above about 30%; inactive = below that, where a call was filed. The list shows a part of the results, in another mix than the full data. The source gives no active or inactive call for entries shown without one.

The target of this experiment is D(2) dopamine receptor (Homo sapiens) (UniProt P14416). In words: HTS Assay for Allosteric Antagonists of the Human D2 Dopamine Receptor: Primary Screen for Antagonists. Also: 0% is about no effect. The settings on record: HEK293 TREx D2 cells, calcium flux, dopamine EC80; at 10 µM; stronger effect = higher value. The essentials: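 HEK293 T-REx D2 cells, tet-induced, calcium dye no-wash. Cpd pintool add, 180 s kinetic, then EC80 DA, 180 s kinetic. Ca flux read.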
Chain of UniProt P14416 (P14416 whole entry, looked up): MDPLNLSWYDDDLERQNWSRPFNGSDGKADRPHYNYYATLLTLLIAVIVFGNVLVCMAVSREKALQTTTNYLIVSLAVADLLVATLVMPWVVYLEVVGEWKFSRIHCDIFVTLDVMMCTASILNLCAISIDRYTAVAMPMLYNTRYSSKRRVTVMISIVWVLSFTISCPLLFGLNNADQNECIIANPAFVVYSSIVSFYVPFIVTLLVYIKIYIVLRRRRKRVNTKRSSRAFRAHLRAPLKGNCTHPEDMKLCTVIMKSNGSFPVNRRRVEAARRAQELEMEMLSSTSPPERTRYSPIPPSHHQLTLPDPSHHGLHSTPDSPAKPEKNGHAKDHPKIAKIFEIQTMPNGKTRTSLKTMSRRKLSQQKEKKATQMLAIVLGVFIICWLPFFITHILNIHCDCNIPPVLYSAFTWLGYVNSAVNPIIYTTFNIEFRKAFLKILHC
`Cc1oc(-c2cccc(Cl)c2)nc1CN1CCC(C(=O)NC(C)C)CC1`: the inhibition amounted to 0.237%.

Turning to `Cc1cc(C)c(S(=O)(=O)Nc2ccc3oc(C)c(C(=O)OC(C)C)c3c2)cc1C`, the inhibition is -13.5%.

As for `Cc1ccc(-c2cn3c(n2)sc2cc(C(=O)NCCCN4CCCCCC4)ccc23)cc1`, the inhibition was 4.22%.

Turning to `CC1=C(c2ccc(C)c(C)c2)S(=O)(=O)N=C1N1CCC(C(=O)NC(C)c2ccccc2)CC1` (stereo not given), the inhibition is -8.67%.

Regarding `CCCN(CCC)C(=O)c1cc2c(=O)n3cccc(C)c3nc2s1`, the inhibition was -5.38%.

Take `CCc1ccc2oc(C(=O)N(Cc3ccc(N(C)C)cc3)Cc3ccco3)c(C)c2c1`: the inhibition was -12.5%.

In the case of `O=C1c2ccccc2-c2onc3c(N4CCN(C5CCCCC5)CC4)cc(NCCO)c1c23`, the inhibition was -23%.

As to `CC(=O)c1cccc(NC(=O)C2CCN(c3ncnc4c3nc3n4CCCCC3)CC2)c1`, the inhibition was found to be 16.3%.

As to `COc1cc(-c2cc(OC)c3c(C)oc(C)c3c(=O)c2)ccc1OC(=O)c1ccc(C)cc1`, the inhibition was -14.3%.

Consider `CCOc1ccc(NC(=O)CSC2=Nc3ccccc3C3=NC(CC(=O)NCc4cccs4)C(=O)N23)cc1` (stereo not given), for which the inhibition stood at 2.84%.

Consider `CCN(CC)CCCOC(=O)C(c1ccccc1)c1ccccc1`, for which the inhibition is active: 49.7%.

With `COc1ccc2c(C)c(CC(=O)NCCc3ccc(Cl)cc3)c(=O)oc2c1C`, the inhibition amounted to 26.5%.

`CN(C)CCCNS(=O)(=O)c1cc(Cl)ccc1Cl`: the inhibition is active: 38.2%.

Regarding `O=C(CSc1n[nH]c(-c2ccccc2Cl)n1)NCCCc1ccccc1`, the inhibition was -17%.

For the compound `Cc1cc(C)cc(OCCSc2nc3ccc(NC(=O)c4cccs4)cc3s2)c1`, the inhibition turned out to be 12%.

As for `CCOc1ccc(C(=O)Nc2c(C(=O)Nc3ccccc3OC)oc3ccccc23)cc1OCC`, the inhibition was 2.04%.

For `O=C(Cn1cc(C(=O)C2CCCCC2)c2ccccc21)Nc1ccccc1Cl`, the inhibition is -2.99%.

`COc1ccc(CNC(=O)Cc2c(C(=O)O)c(C)cn2C)cc1`: the inhibition came to 9.12%.

`Clc1ccc(CN2CCN(c3ncnc4sc5c(c34)CCCC5)CC2)cc1Cl`: the inhibition is 8.28%.

Regarding `O=C(CN1C(=O)NC2(CCCCCC2)C1=O)Nc1ccc(Br)cc1Br`, the inhibition was active: 37.2%.

For `O=C(NCc1ccc(F)cc1Cl)c1cc(=O)[nH]c2ccc(S(=O)(=O)N3CCCCC3)cc12`, the inhibition is -16.4%.

As for `COc1ccc(-c2nc3scc(CCNS(=O)(=O)c4ccc5c(c4)OCCO5)n3n2)cc1OC`, the inhibition turned out to be 2.8%.

As for `Cc1ccsc1CCN1C(=O)N(c2ccccc2)C(=O)C1CC(=O)Nc1ccc(Cl)cc1` (stereo not given), the inhibition is -20.1%.

Take `COc1ccc(-c2nc3scc(CCNS(=O)(=O)c4ccc(Oc5ccccc5)cc4)n3n2)cc1OC`: the inhibition is -0.691%.

In the case of `CCN(CC)C(=O)c1sc2c(c1C)c(=O)n(-c1ccc(C)c(C)c1)c(=O)n2Cc1cc(=O)n2ccccc2n1`, the inhibition was 0.557%.

With `COc1ccc(N2CCN(C(=O)CSc3nc(-c4ccc(C(C)C)cc4)no3)CC2)cc1`, the inhibition was 1.48%.

Take `Cc1ccc2sc(N(Cc3cccnc3)C(=O)CCS(=O)(=O)c3ccccc3)nc2c1C`: the inhibition turned out to be 0.1%.

Turning to `O=C(CNC(=O)c1ccccc1)OCc1cc(=O)n2nc(C3CCCCC3)sc2n1`, the inhibition stood at 4.43%.

Regarding `CCN(CC)C(=O)c1sc2c(c1C)c(=O)n(Cc1ccccc1)c(=O)n2Cc1ccccc1C`, the inhibition is -0.629%.

With `CC(=O)c1cccc(NC(=O)Nc2sc3nc4n(c(=O)c3c2C)CCC(C)CC4)c1` (stereo not given), the inhibition was 13.2%.

With `Cc1cn2c(=O)cc(COC(=O)c3ccc(NC(=O)c4ccc(F)cc4)cc3)nc2s1`, the inhibition amounted to 3.33%.

Regarding `CCc1ccc(-c2cc(C)no2)cc1S(=O)(=O)NCCCN1CCN(c2ccccc2)CC1`, the inhibition was active: 50.9%.

Regarding `CC1CCN(S(=O)(=O)N2CCC(C(=O)NCc3ccccc3Cl)CC2)CC1`, the inhibition is -18.4%.

On to `COC(=O)c1ccc(Nc2ncnc3c2cnn3C)cc1`, for which the inhibition was 23.4%.

In the case of `Brc1cccc(OCCCCN2CCCCC2)c1`, the inhibition was active: 88%.

For `Cc1ccc(C)c(NC(=S)/C(=C(\[O-])c2ccc(OC(F)F)cc2)[n+]2ccccc2)c1`, the inhibition is active: 30.5%.

In the case of `COc1ccc(C2c3[nH]c4ccccc4c3CCN2C(=O)CCC2CCCC2)cc1` (stereo not given), the inhibition was -13.2%.

`O=C(Cn1c2[n+](c3ccc(C(F)(F)F)cc31)CCCCC2)Nc1ccc(Br)cc1`: the inhibition was active: 56.2%.

As to `COc1ccc(CNC(=O)Cc2c(C)c3cc4c(C)coc4cc3oc2=O)cc1OC`, the inhibition came out at 4.5%.

Take `CC(=O)NNC(=S)NCCc1ccccc1`: the inhibition was active: 48.7%.

For the compound `CC(Sc1nccn1C)C(=O)Nc1ccccc1C#N` (stereo not given), the inhibition worked out at 3.41%.

`CCN(CC)c1ccc(NC(=O)c2cc(C)nc3c2c(C)nn3-c2ccc(C)cc2)c(C)c1`: the inhibition was determined as 12.8%.

Regarding `Cc1cccc(CN2C(=O)c3ccccc3Sc3ccc(C(=O)NCc4ccco4)cc32)c1`, the inhibition was -4.76%.

Turning to `CCOc1ccc(NC(=O)c2oc3ccccc3c2NC(=O)COc2cccc(OC)c2)cc1`, the inhibition was 2.52%.

As for `CCS(=O)(=O)c1ncc(Cl)c(C(=O)N2CCN(c3ccc(OC)cc3)CC2)n1`, the inhibition is 0.281%.

For the compound `NS(=O)(=O)c1ccc(CCNC(=O)C2CCN(c3ncnc4c3nc3n4CCCCC3)CC2)cc1`, the inhibition was 10.7%.

With `N#CCCCn1c(O)c(N=NC(=O)C(O)c2ccccc2)c2ccccc21` (stereo not given), the inhibition was active: 38.5%.

For the compound `CCC(CC)C(=O)Nc1nnc(S(=O)(=O)N2CCCCCC2)s1`, the inhibition is -1.87% and active: 31.9%.

On to `CCC(Sc1nc2c(sc3ccccc32)c(=O)n1CCc1ccc(OC)c(OC)c1)C(=O)N(CC)CC` (stereo not given), for which the inhibition came out at 4.19%.

`COc1ccc(CCNC(=O)c2ccc3c(c2)CCN3S(C)(=O)=O)cc1OC`: the inhibition was -0.384%.

In the case of `Cc1nc(-c2ccc(S(=O)(=O)Nc3cc(Cl)ccc3C)cc2)co1`, the inhibition stood at 20.1%.

Turning to `COc1ccc(Cn2cc(S(=O)(=O)c3ccc(C)cc3)c(=O)c3cc(F)ccc32)cc1`, the inhibition was determined as 17.6%.

`COc1ccc2c(c1)c(=O)c(C(=O)c1ccccc1)cn2CC(=O)Nc1ccc2c(c1)OCO2`: the inhibition was -1.36%.

As for `COc1ccc2c(CNCCc3ccc(SC)cc3)c(C(=O)O)n(Cc3ccc(F)cc3)c2c1`, the inhibition was -18.3%.

As for `CCOc1ccc(CCNC(=O)c2cc3c(-c4ccccc4F)nn(C)c3s2)cc1`, the inhibition stood at 13.7%.

Take `CCC(Cn1nnc2ccccc2c1=O)NC(=O)Nc1ccccc1OC` (stereo not given): the inhibition was determined as 21.5%.

For `O=C(CN1CCN(Cc2ccccc2)CC1)Nc1cccc(C(F)(F)F)c1`, the inhibition is active: 39.2%.

As for `COc1ccc(-c2cc(-c3ccc(C)cc3)nc3c2COc2ccccc2-3)cc1`, the inhibition is -14.1%.

In the case of `Cc1ccc(S(=O)(=O)c2nc(-c3ccc(F)cc3)oc2SCC(=O)NC2CCCCC2)cc1`, the inhibition was -25.9%.

On to `COc1ccc(Cl)cc1-n1cc(-c2ccccc2)nc1SCC(=O)Nc1ccc(C)cc1`, for which the inhibition was -24.7%.
